Results from PubChem BioAssay AID2202238 (Ras Initiative Chemistry Research Team, Frederick National …, 2025).
Some of the results follow. Shown are side measurements of this screen, not its main read-out; they come without a call.

Biological target: GTPase KRas (Homo sapiens) (UniProt P01116)
Test: Fragment capture on engineered cysteines, share of protein labelled (AID 2202238)
Set-up: protein at 5 µM with 500 µM competing thiol for 1.5 h
Details: KRAS G12D cysteine mutants, disulfide tethering, MALDI-TOF labeling, stronger effect = higher value, fragment at 500 µM
[1] = measured here: G75C mutant labeling
[2] = measured here: H94C mutant labeling
[3] = measured here: I36C mutant labeling
[4] = measured here: L120C mutant labeling
[5] = measured here: M67C mutant labeling
[6] = measured here: M72C mutant labeling
[7] = measured here: N86C mutant labeling
[8] = measured here: P121C mutant labeling
[9] = measured here: S122C mutant labeling
[10] = measured here: S136C mutant labeling
[11] = measured here: G60C mutant labeling
[12] = measured here: N26C mutant labeling

Chain of UniProt P01116 (P01116 whole entry, looked up, the tested form may be a part): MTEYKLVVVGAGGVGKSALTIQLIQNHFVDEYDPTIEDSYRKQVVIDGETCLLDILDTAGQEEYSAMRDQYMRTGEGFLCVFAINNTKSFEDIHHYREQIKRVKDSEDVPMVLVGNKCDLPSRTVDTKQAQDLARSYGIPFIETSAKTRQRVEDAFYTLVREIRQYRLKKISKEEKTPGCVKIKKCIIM

Structure (SMILES) | percent labeling [1] | percent labeling [2] | percent labeling [3] | percent labeling [4] | percent labeling [5] | percent labeling [6] | percent labeling [7] | percent labeling [8] | percent labeling [9] | percent labeling [10] | percent labeling [11] | percent labeling [12]
Cc1nn(C)c(-n2cncn2)c1NC(=O)CCS | 7.7% | 31.9% | 38.6% | 28.8% | 33% | 10.6% | 20.6% | 37.8% | 31.1% | 55% | – | –
O=C(CCS)NCC(=O)N1CCN(c2ccccc2)CC1 | 6.4% | 24.2% | 30.8% | 31.4% | 30.7% | 15.9% | 10.5% | 26.2% | 20.2% | 33.9% | – | –
O=C(NCCS)c1ccc(Oc2ccc(F)cc2Br)nc1 | 13.1% | 7.2% | 4.6% | 8.1% | 7% | 26.2% | 4.4% | 5.4% | 3.5% | 9.8% | 17.6% | 13.7%
O=C(NCCS)c1ccnc2nc(C3CCOCC3)[nH]c12 | 11% | 32% | 25.6% | 22% | 33.6% | 25.3% | 14.9% | 16.4% | 16% | 41.2% | 20.9% | 42.8%
O=C(CCS)Nc1c(-c2ccccc2)[nH][nH]c1=O | 9.3% | 26.4% | 22.8% | 38.8% | 26.8% | 20.8% | 17.3% | 31.6% | 33.3% | 48.3% | – | –
O=C(NCCS)C(CC1CCCO1)C(F)(F)F (stereo unspecified) | 11% | 31.4% | 21.9% | 31.9% | 30.4% | 19.7% | 32.4% | 30.8% | 31.4% | 38.9% | 26.6% | 25.5%
CCOc1ccc(NC(=O)CCS)c2ncccc12 | 11.4% | 9.7% | 18.1% | 14.5% | 12.4% | 31.4% | 12.6% | 10.7% | 14% | 21.2% | – | –
O=C(NCCS)c1cc(-c2cnc3[nH]ccc3c2)ccn1 | 11.2% | 14.2% | 8.5% | 16.3% | 11.7% | 52.7% | 10.6% | 12% | 8.4% | 11.7% | 18.6% | 30.1%
Cc1cc(CNC(=O)CCS)ccc1Oc1ccc(F)cc1 | 13.5% | 41.9% | 22.1% | 18.1% | 23.5% | 46.3% | 17% | 23.2% | 10.2% | 30.6% | – | –
O=C(NCCS)c1cn(CC2CCOC2)nn1 (stereo unspecified) | 16.3% | 30.4% | 25.9% | 41% | 27.7% | 35.8% | 23% | 32.3% | 29.9% | 47.6% | 22.1% | 39.7%
Cc1c([C@H]2[C@H](C(=O)NCCS)CC(=O)N2C2CC2)cnn1C | 9.1% | 30.4% | 27.2% | 24% | 33.1% | 17.2% | 16.1% | 30.5% | 23.6% | 31.9% | 27.7% | 29.7%
O=C(NCCS)c1cccc(NC(=O)c2ccc3nc[nH]c3c2)c1 | 14.4% | 13.7% | 8.1% | 14.4% | 11.1% | 34.1% | 11% | 8.7% | 6.6% | 13.2% | 25% | 39.1%
O=C(CCc1nc2ccccc2n1-c1ccccc1)NCCS | 19.9% | 37.7% | 19.6% | 21.8% | 27.2% | 26.8% | 17.7% | 18% | 14.3% | 40.6% | 42.5% | 31.7%
